# Laboratory results reported in the supplement of paper PMC8728848.
# The other results are listed elsewhere or left out.
# B1: AICL (Homo sapiens), Q92478 (protein)
# chain: MMTKHKKCFIIVGVLITTNIITLIVKLTRDSQSLCPYDWIGFQNKCYYFSKEEGDWNSSKYNCSTQHADLTIIDNIEEMNFLRRYKCSSDHWIGLKMAKNRTGQWVDGATFTKSFGMRGSEGCAYLSDDGAATARCYTERKWICRKRIH
# Assays:
# Assay in all cases: glycan array binding signal (z-score within array); higher = stronger binding
# Conditions in all cases: glycan notation: IUPAC condensed, linker removed
# [1] = molecular target: Gal(b1-4)GlcNAc(b1-3)GalNAc
# How it was run: (§1)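 The binding signal is a Z-score computed within each array and averaged over linkers. Arrays of the same protein sequence at different concentrations or buffers were also averaged together. Data originate from 3228 arrays in the Consortium for Functional Glycomics database, kept only where the protein sequence was available.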
# [2] = molecular target: Gal(b1-4)GlcNAc(b1-3)[Gal(b1-4)GlcNAc(b1-6)]GalNAc
# How it was run: as §1
# [3] = molecular target: Gal(b1-4)GlcNAc(b1-6)Gal(b1-4)GlcNAc(b1-6)GalNAc
# How it was run: as §1
# [4] = molecular target: Gal(b1-4)GlcNAc(b1-6)GalNAc
# How it was run: as §1
# [5] = molecular target: Gal(b1-4)GlcNAc(b1-6)[Gal(b1-3)]GalNAc
# How it was run: as §1
# Gal3S(b1-3)GalNAc = molecular target: Gal3S(b1-3)GalNAc
# How it was run: as §1
# Gal3S(b1-3)GlcNAc = molecular target: Gal3S(b1-3)GlcNAc
# How it was run: as §1
# [6] = molecular target: Gal3S(b1-3)[Fuc(a1-4)]GlcNAc
# How it was run: as §1
# Gal3S(b1-4)Glc = molecular target: Gal3S(b1-4)Glc
# How it was run: as §1
# Gal3S(b1-4)Glc6S = molecular target: Gal3S(b1-4)Glc6S
# How it was run: as §1
# Gal3S(b1-4)GlcNAc = molecular target: Gal3S(b1-4)GlcNAc
# How it was run: as §1
# Gal3S(b1-4)GlcNAc6S = molecular target: Gal3S(b1-4)GlcNAc6S
# How it was run: as §1
# Gal3S6S(b1-4)GlcNAc = molecular target: Gal3S6S(b1-4)GlcNAc
# How it was run: as §1
# Gal3S6S(b1-4)GlcNAc6S = molecular target: Gal3S6S(b1-4)GlcNAc6S
# How it was run: as §1
# Gal4S(b1-4)GlcNAc = molecular target: Gal4S(b1-4)GlcNAc
# How it was run: as §1
# Gal4S6S(b1-4)GlcNAc = molecular target: Gal4S6S(b1-4)GlcNAc
# How it was run: as §1
# Gal6S(b1-4)Glc = molecular target: Gal6S(b1-4)Glc
# How it was run: as §1
# Gal6S(b1-4)Glc6S = molecular target: Gal6S(b1-4)Glc6S
# How it was run: as §1
# Gal6S(b1-4)GlcNAc = molecular target: Gal6S(b1-4)GlcNAc
# How it was run: as §1
# GalNAc(a1-3)Gal = molecular target: GalNAc(a1-3)Gal
# How it was run: as §1
# GalNAc(a1-3)GalNAc = molecular target: GalNAc(a1-3)GalNAc
# How it was run: as §1
# [7] = molecular target: GalNAc(b1-3)Gal(a1-4)Gal(b1-4)GlcNAc
# How it was run: as §1
# GalNAc(b1-3)GalNAc = molecular target: GalNAc(b1-3)GalNAc
# How it was run: as §1
# GalNAc(b1-4)GlcNAc = molecular target: GalNAc(b1-4)GlcNAc
# How it was run: as §1
# Glc(a1-4)Glc = molecular target: Glc(a1-4)Glc
# How it was run: as §1
# Glc(a1-6)Glc(a1-6)Glc = molecular target: Glc(a1-6)Glc(a1-6)Glc
# How it was run: as §1
# Glc(b1-4)Glc = molecular target: Glc(b1-4)Glc
# How it was run: as §1
# Glc(b1-6)Glc = molecular target: Glc(b1-6)Glc
# How it was run: as §1
# GlcA(b1-3)Gal = molecular target: GlcA(b1-3)Gal
# How it was run: as §1
# GlcA(b1-6)Gal = molecular target: GlcA(b1-6)Gal
# How it was run: as §1
# [8] = molecular target: GlcNAc(a1-3)Gal(b1-4)GlcNAc
# How it was run: as §1
# [9] = molecular target: GlcNAc(a1-6)Gal(b1-4)GlcNAc
# How it was run: as §1
# [10] = molecular target: GlcNAc(b1-2)Gal(b1-3)GalNAc
# How it was run: as §1
# [11] = molecular target: GlcNAc(b1-2)Man(a1-3)[GlcNAc(b1-2)Man(a1-6)]Man(b1-4)GlcNAc(b1-4)GlcNAc
# How it was run: as §1
# GlcNAc(b1-3)Gal = molecular target: GlcNAc(b1-3)Gal
# How it was run: as §1
# [12] = molecular target: GlcNAc(b1-3)Gal(b1-3)GalNAc
# How it was run: as §1
# GlcNAc(b1-3)Gal(b1-4)Glc = molecular target: GlcNAc(b1-3)Gal(b1-4)Glc
# How it was run: as §1
# [13] = molecular target: GlcNAc(b1-3)Gal(b1-4)GlcNAc
# How it was run: as §1
# [14] = molecular target: GlcNAc(b1-3)Gal(b1-4)GlcNAc(b1-3)Gal(b1-4)GlcNAc
# How it was run: as §1
# GlcNAc(b1-3)GalNAc = molecular target: GlcNAc(b1-3)GalNAc
# How it was run: as §1
# [15] = molecular target: GlcNAc(b1-3)[GlcNAc(b1-6)]Gal(b1-4)GlcNAc
# How it was run: as §1
# [16] = molecular target: GlcNAc(b1-3)[GlcNAc(b1-6)]GalNAc
# How it was run: as §1
# [17] = molecular target: GlcNAc(b1-3)[GlcNAc(b1-6)]GlcNAc(b1-4)GlcNAc
# How it was run: as §1
# [18] = molecular target: GlcNAc(b1-4)Gal(b1-4)GlcNAc
# How it was run: as §1
# [19] = molecular target: GlcNAc(b1-4)GlcNAc(b1-4)GlcNAc
# How it was run: as §1
binder,measurement,setting,value
B1,glycan array binding signal (z-score),[1],-0.489
same,glycan array binding signal (z-score),[2],-0.511
same,glycan array binding signal (z-score),[3],-0.135
same,glycan array binding signal (z-score),[4],-0.488
same,glycan array binding signal (z-score),[5],-0.394
same,glycan array binding signal (z-score),Gal3S(b1-3)GalNAc,-0.409
same,glycan array binding signal (z-score),Gal3S(b1-3)GlcNAc,-0.367
same,glycan array binding signal (z-score),[6],-0.245
same,glycan array binding signal (z-score),Gal3S(b1-4)Glc,-0.061
same,glycan array binding signal (z-score),Gal3S(b1-4)Glc6S,1.89
same,glycan array binding signal (z-score),Gal3S(b1-4)GlcNAc,-0.281
same,glycan array binding signal (z-score),Gal3S(b1-4)GlcNAc6S,1.18
same,glycan array binding signal (z-score),Gal3S6S(b1-4)GlcNAc,0.586
same,glycan array binding signal (z-score),Gal3S6S(b1-4)GlcNAc6S,5.26
same,glycan array binding signal (z-score),Gal4S(b1-4)GlcNAc,-0.344
same,glycan array binding signal (z-score),Gal4S6S(b1-4)GlcNAc,0.445
same,glycan array binding signal (z-score),Gal6S(b1-4)Glc,-0.142
same,glycan array binding signal (z-score),Gal6S(b1-4)Glc6S,1.15
same,glycan array binding signal (z-score),Gal6S(b1-4)GlcNAc,-0.369
same,glycan array binding signal (z-score),GalNAc(a1-3)Gal,-0.333
same,glycan array binding signal (z-score),GalNAc(a1-3)GalNAc,-0.423
same,glycan array binding signal (z-score),[7],-0.363
same,glycan array binding signal (z-score),GalNAc(b1-3)GalNAc,-0.439
same,glycan array binding signal (z-score),GalNAc(b1-4)GlcNAc,-0.322
same,glycan array binding signal (z-score),Glc(a1-4)Glc,-0.399
same,glycan array binding signal (z-score),Glc(a1-6)Glc(a1-6)Glc,-0.612
same,glycan array binding signal (z-score),Glc(b1-4)Glc,-0.32
same,glycan array binding signal (z-score),Glc(b1-6)Glc,-0.395
same,glycan array binding signal (z-score),GlcA(b1-3)Gal,5.65
same,glycan array binding signal (z-score),GlcA(b1-6)Gal,4.6
same,glycan array binding signal (z-score),[8],-0.404
same,glycan array binding signal (z-score),[9],-0.437
same,glycan array binding signal (z-score),[10],-0.44
same,glycan array binding signal (z-score),[11],0.226
same,glycan array binding signal (z-score),GlcNAc(b1-3)Gal,-0.329
same,glycan array binding signal (z-score),[12],-0.17
same,glycan array binding signal (z-score),GlcNAc(b1-3)Gal(b1-4)Glc,-0.588
same,glycan array binding signal (z-score),[13],-0.146
same,glycan array binding signal (z-score),[14],-0.374
same,glycan array binding signal (z-score),GlcNAc(b1-3)GalNAc,-0.445
same,glycan array binding signal (z-score),[15],-0.49
same,glycan array binding signal (z-score),[16],-0.206
same,glycan array binding signal (z-score),[17],-0.343
same,glycan array binding signal (z-score),[18],-0.428
same,glycan array binding signal (z-score),[19],-0.413
